# Experimental data as given in PubChem BioAssay AID1479 (National Center for Advancing Translational Sciences (NCATS), 2009).
# Values joined by “and” are separate entries in the source; they are usually repeats but may differ in a detail not shown here. Equal values may be shown once. The whole screen tested about 280,000 compounds, of which about 820 (0.29%) were called active. This list was built around the results that the source calls inconclusive (neither active nor inactive); the mix of calls is not that of the screen. The call rests on the fitted dose curve; in most records, active means well fitted curve in either direction with a large enough effect; inconclusive means small, poorly fitted or top-dose-only effect; inactive means flat fitted curve, though single readings scatter. Potencies of inconclusive entries are left out as doubtful fits.
# Experiment: Total Fluorescence Counterscreen for Inhibitors of the Interaction of Thyroid Hormone Receptor and Steroid Receptor Coregulator 2
# Conditions: TRb/SRC2 Texas Red total fluorescence interference; series mostly up to 106 µM; fluorescence change, negative = quenching: at the top concentration
# How it was run: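 Flags fluorescent or light-absorbing compounds by total fluorescence, S + 2P, at 555 nm excitation and 632 nm emission. Mixture: 20 nM Texas Red SRC2 peptide, 0.6 uM human TRb LBD, 1 uM T3, 5% DMSO; compound exposure 5 h at ambient temperature.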
# On the % scale 0 is the no-effect control and ±100 the full control effect; potency means the concentration at half of the fitted maximal effect; tags describe the fitted curve by direction and shape or compound fluorescence and quenching.
SMILES,Potency,"fluorescence change, negative = quenching"
COc1ccc(OCC(=O)OCc2cc(=O)n3cc(C)sc3n2)cc1,"inconclusive [falling, full curve, poor fit]",
COc1cc(/C=N\NC(=O)c2ccc(C)nc2)ccc1OC(=O)c1ccco1,"inconclusive [quencher, full curve]",
CCc1cccc2c1NC1(CCCC1)CC2C (centres undefined),"inconclusive [fluorescent, partial curve]",
COc1ccc(-c2cc(OC(=O)c3ccc(Cl)cc3)c3c(C)oc(C)c3c(=O)c2)cc1,"inconclusive [falling, full curve, poor fit]",
CN(C)c1ccc(Nc2nc(-c3cccnc3)cs2)cc1,,inactive: -2.31%
CSC1=NSC2=NC(=O)/C(=C/c3coc4ccccc4c3=O)C(=N)N12,"inconclusive [quencher, partial curve]",
Cc1ccc(S(=O)(=O)N[C@H]2COC(=O)[C@@H](Cc3ccccc3)NC(=O)[C@@H](C)COC(=O)C/C=C\[C@@H]2C)cc1,,inactive: 0.997% [at 11.2 µM] and inactive: 1.62% [at 11.2 µM]
CC(/C=N\NC(=O)CN1CCN(Cc2ccccc2)CC1)=C\c1ccco1,"inconclusive [falling, full curve, poor fit]",
CC(=O)Nc1ccc(S(=O)(=O)NCc2ccc3c(c2)cc(C)n3C)cc1,"inconclusive [fluorescent, partial curve]",
Cc1cc(-n2c(SCc3ccccc3F)nc3n[nH]c(C)c3c2=N)ccc1Cl,,inactive: -0.825%
CC1=CC(=O)c2c(O)ccc(O)c2C1=O,active: 22.4 µM [quencher],
Oc1c(C=C2N=c3ccccc3=N2)sc(=S)n1C1CCCC1,"inconclusive [falling, full curve, poor fit]",
COc1ccccc1NC(=O)Nc1ccc(-n2ccc(C(F)(F)F)n2)cc1,,inactive: -1.01%
CC1=CN2C(=N)/C(=C/c3ccc(C)o3)C(=O)N=C2S1,"inconclusive [falling, full curve, poor fit]",
CCOc1ccc(-c2nnc3ccc(SCC(=O)Nc4nc5ccccc5s4)nn23)cc1,"inconclusive [falling, full curve, poor fit]",
COc1ccc(-c2nnc(SCC(=O)NCc3ccccc3)nc2-c2ccc(OC)c(OC)c2)cc1OC,"inconclusive [falling, partial curve, poor fit]",
CCN1c2ccccc2N(C)C1(C)c1ccccc1 (centres undefined),active: 44.7 µM [fluorescent],
COc1cccc(CNC(=O)c2ccc3c(c2)N(Cc2ccc(C(F)(F)F)cc2)C(=O)c2ccccc2S3)c1OC,active: 31.6 µM [quencher],
COC(=O)c1ccc(Cl)cc1NC(=O)N1CCC(CN2CCCC2)CC1,,inactive: -4.47%
Cc1ccc(-n2nnnc2-c2cnn(-c3cccc(F)c3)c2C(F)(F)F)cc1,,inactive: -5.75%

SMILES,Potency,"fluorescence change, negative = quenching"
O=C(c1ccccc1Cl)N1CCN(CCc2ccccn2)CC1,"inconclusive [falling, partial curve, poor fit]",
COc1ccc(NC(=O)CSc2nc(C)cc(C)c2C(=O)Nc2cccc(C)c2)cc1,"inconclusive [falling, partial curve, poor fit]",
N#Cc1ccccc1Cn1c(=O)n(-c2ccc(F)c(Cl)c2)c(=O)c2sccc21,"inconclusive [falling, full curve, poor fit]",
CC(C)CC(NC(=O)C(COC(C)(C)C)NC(=O)C(Cc1ccc(O)cc1)NC(=O)C(CO)NC(=O)C(Cc1c[nH]c2ccccc12)NC(=O)C(Cc1cnc[nH]1)NC(=O)C1CCC(=O)N1)C(=O)NC(CCCN=C(N)N)C(=O)N1CCCC1C(=O)NNC(N)=O (centres undefined),"inconclusive [falling, full curve, poor fit]",
Cc1nn(C)c2c1c(-c1ccccc1)cc(=O)n2CC(=O)NC(C)(C)C,"inconclusive [falling, partial curve, poor fit]",
CCC1(CC)C(=O)C2=C3C1[C@H](C(=O)OC)CC(C(=O)OC)C[C@H]3n1c(=O)n(-c3ccccc3)c(=O)n1[C@H]2C (some centres undefined),active: 44.7 µM [fluorescent],
CCC(C)NC(=O)C1CCN(C(=O)c2cc3sccc3n2Cc2ccc(Cl)cc2)CC1 (centres undefined),,inactive: 2.38%
Cc1cccn2c(=O)c3cc(C(=O)NCCc4ccc(S(N)(=O)=O)cc4)n(C)c3nc12,"inconclusive [quencher, full curve]",
CN1/C(=C\C=C2/SC(=S)N(CC(=O)O)C2=O)C(C)(C)c2ccccc21,active: 44.7 µM [fluorescent],
c1ccc(CN2CCC(Nc3ncnc4sccc34)CC2)cc1,,inactive: 0.623%
O=C(Nc1nc(-c2ccccc2)cs1)C1c2ccccc2Oc2ccccc21,,inactive: -2.85%
Cc1ccc(S(=O)(=O)N2CC=C(c3ccc(F)cc3)CC2)cc1,"inconclusive [falling, full curve, poor fit]",
O=C(c1ccc(CSc2nc3ccncc3n2Cc2ccccc2F)cc1)N1CCCCCC1,"inconclusive [falling, full curve, poor fit]",
CCc1ccccc1NC(=O)CCCN1C(=O)COc2ccc(C)cc21,"inconclusive [falling, partial curve, poor fit]",
Cn1c(C(=O)NCc2ccc(Cl)cc2)cc2c(=O)n(C)c3ccccc3c21,"inconclusive [quencher, full curve]",
Cc1ccc(-n2nc(C)c3c(C)cc(=O)n(CC(=O)NCc4ccc(OC(C)C)cc4)c32)cc1,"inconclusive [falling, partial curve, poor fit]",
COC(=O)c1ccc2oc(=O)c(S(=O)(=O)c3ccc(C)cc3)cc2c1,"inconclusive [falling, partial curve, poor fit]",
COc1c2ccoc2cc2oc(C)cc(=O)c12,"inconclusive [falling, partial curve, poor fit]",
CCC1CCCCN1S(=O)(=O)c1ccc(C(=O)Nc2nnc(-c3ccccc3Cl)o2)cc1 (centres undefined),,inactive: -8.53%
